Assay results taken from PubChem BioAssay (NCI).
“And” between values parts separate entries of the source, which are not always exact repeats. Equal values may be shown once.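 All cell lines were grown in 96-well plates and treated with compound for 48 hours. Here, GI50 denotes the concentration required for 50% inhibition of growth. TGI: total growth inhibition.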

Tested on: NCI-H322M lung
Test: growth of human tumour cells (NCI), 48 h

Row | SMILES | GI50 | TGI
1 | COc1cccc(N2C(=N)/C(=C3\Nc4ccccc4S3)CC2=O)c1 | > 100 µM | > 100 µM
2 | Cc1cc2c(C(C)C)c(O)c(O)c(/C=N/O)c2c(O)c1-c1c(C)cc2c(C(C)C)c(O)c(O)c(/C=N/O)c2c1O | 3.59 µM | 16.1 µM
3 | CN(C)Cc1ccc(O)c(CN(C)C)n1 | – | > 100 µM
4 | O=C(c1ccc(Cl)c(Cl)c1)N(C(=S)OC12CC3CC(CC(C3)C1)C2)c1ccccc1 | – | > 100 µM
5 | COc1ccc(CCn2ccc(C)n2)c(OC)c1 | – | > 100 µM
6 | COC1=CC(=O)C2=C(C1=O)[C@H]1CC[C@]3(C)C(=O)CC[C@H]3[C@@H]1CC2 | – | > 100 µM
7 | O=[N+]([O-])c1ccccc1S(=O)(=O)c1cccc2c1NCCC2 | – | > 100 µM
8 | CCN(CC)Cc1cc(Nc2ccnc3ccc(OC)cc23)ccc1O | 3.26 µM | 13.7 µM
9 | CC(/C=C/c1ccccc1)=N\NC(=S)N/N=C(C)/C=C/c1ccccc1 | – | > 100 µM
10 | NC(N)=N/N=C/c1c(-c2ccc([N+](=O)[O-])cc2)nc2sc(Cl)cn12 | – | 1.93 µM
11 | CN1CCOC1(C)c1ccccc1 (stereo not given) | – | > 100 µM
12 | COC(=O)NCCc1[nH]nc2c1C(=O)C=C(Nc1ccccc1OC)C2=O | – | 82.9 µM
13 | O=c1nc(N2CCCCC2)sc2[nH]c3ccccc3c12 | – | > 100 µM
14 | [pH]1p2[pH]p3p1p3[pH]2.c1cc[c]([Ge]([c]2ccccc2)[c]2ccccc2)cc1.c1cc[c]([Ge]([c]2ccccc2)[c]2ccccc2)cc1.c1cc[c]([Ge]([c]2ccccc2)[c]2ccccc2)cc1 | 16.1 µM | 31.3 µM
15 | C=C(Cl)[C@](Cl)(CBr)CC[C@@H](Br)C(C)(C)Cl | – | 3.42 µM
16 | C=C1CC[C@@](C)(c2cc(Br)c(C)cc2OC(C)=O)[C@H]1C | 16.1 µM | 30.1 µM
17 | COc1ccc(-c2cc(-c3ccc(Cl)cc3)nc(SCCCC(=O)NO)n2)cc1OC | 0.842 µM | 7.33 µM
18 | COC(=O)C1=C(N)C2=C(N)Oc3ccccc3C2CC1=C(C#N)C#N (stereo not given) | – | 91.2 µM
19 | COc1ccc(/C=C/C(=O)C(=O)/C=C/c2ccc(OC)c(OC)c2)cc1OC | 6.69 µM | > 100 µM
20 | CN1CC=C(C#CC(C)(C)O)CC1 | – | > 37.5 µM
21 | COC(=O)COc1ccccc1/C=C1/N=C(c2ccccc2)N(c2c(C)n(C)n(-c3ccccc3)c2=O)C1=O | > 100 µM | > 100 µM
22 | COC(=O)NC1=Nc2ccccc2C(=O)NN1 | – | > 100 µM
23 | Cc1c(C(=O)/C=C/c2ccc([N+](=O)[O-])cc2)[n+](=O)c2ccccc2n1[O-] | – | > 100 µM
24 | Nc1ncc(-c2ccc3ncnc(N4CCc5cc(F)c(Cl)cc54)c3c2)cc1C=O | 0.775 µM | > 100 µM

Row | SMILES | GI50 | TGI
25 | CC1CCC2C(C)C(OC(=O)CCC(=O)O)OC3OC4(C)CCC1C32OO4 (stereo not given) | – | > 100 µM
26 | Cc1c(Br)c(Br)c2c3c1nc(N1CCNCC1)n3CCC2 | 1.65 µM | 3.02 µM
27 | NC(=O)NC(=O)Nc1ccc(Br)cc1 | – | > 39.6 µM
28 | CC(=O)c1ccc(NC(=O)C(=O)CC(=O)c2sc(-n3nc(-c4ccccc4)cc3-c3ccccc3)nc2C)cc1 | – | > 100 µM
29 | O=c1c2ccccc2nc(-c2ccccc2)n1/N=C/c1ccccc1[N+](=O)[O-] | – | > 100 µM
30 | CC(=O)[CH-]C(=O)c1ccccc1.CC(=O)[CH-]C(=O)c1ccccc1.CC[C@H](CCC(C)[C@H]1CCC2[C@@H]3CC=C4C[C@@H]([O-])CC[C@]4(C)C3CC[C@@]21C)C(C)C.CC[C@H](CCC(C)[C@H]1CCC2[C@@H]3CC=C4C[C@@H]([O-])CC[C@]4(C)C3CC[C@@]21C)C(C)C.Cl.[Ti+4] (stereo not given in full) | – | > 25 µM
31 | O=c1[nH]c(-c2ccccc2)nc2cc([N+](=O)[O-])c(/C(Cl)=C/c3ccccc3)cc12 | – | > 100 µM
32 | CSc1ncc2c(C#N)c3n(C)c4ccccc4n3c(=O)c2n1 | – | > 100 µM
33 | CC(C)(C)c1cc(Cc2ccc(S(C)(=O)=O)cc2)c(O)c(C(C)(C)C)c1 | – | 28 µM
34 | CN(C)C/C=C/C(=O)Nc1ccc(C(=O)Nc2cccc(Nc3ncc(Cl)c(-c4c[nH]c5ccccc45)n3)c2)cc1 | 0.0527 µM | 0.933 µM
35 | C=C1C2CCCC1C1(S(C)(=O)=O)CCCCC21O (stereo not given) | – | > 100 µM
36 | O=S(=O)(N=[Se](=O)(c1ccccc1)c1ccccc1)c1ccccc1 | – | > 100 µM
37 | N=C1C(c2nc3ccccc3c(=O)[nH]2)=C(O)CN1c1cccc(Cl)c1 | 3.11 µM | 33.3 µM
38 | COc1cc(C(=O)/C=C/c2cccnc2Nc2ccc(Cl)cc2)cc(OC)c1OC | 1.95 µM | 3.65 µM
39 | Cc1c(N)c(C#N)c2n(C)c3ncccc3n2c1=O | – | > 100 µM
40 | Cn1cc(Nc2nccc(-c3ccc4c(c3)CN(C3COC3)CC[C@H]4NC(=O)c3cn(C(C)(C)C)nn3)n2)cn1 | 65.3 µM | > 100 µM
41 | NC(=S)NN=Cc1ccccc1OCc1cccc(COc2ccccc2C=NNC(N)=S)n1 | – | > 100 µM
42 | [CH3][Ge]([CH3])([CH2]CC#N)[S]c1ccccc1 | 70.5 µM | > 100 µM
43 | CCN(CC)CCOc1ccc2c(-c3ccccc3)c(-c3ccc(OC)cc3)c(=O)oc2c1 | 12.9 µM | 25.9 µM
44 | CC1=C(C)C2(C#N)C(=O)N3C(=NC(c4ccco4)NC3c3ccco3)C2(C#N)C(c2ccco2)N1 (stereo not given) | – | > 100 µM
45 | COc1ccc(C[C@@H]2OC3(C=CC(=O)CC3Sc3ccccc3)O[C@H]2Cc2ccc(OC)cc2)cc1 (stereo not given in full) | – | 21.2 µM
46 | C=C1C(=O)O[C@H]2C(=O)[C@H](C)CCC/C(C)=C/CC[C@@]3(C)O[C@@H]3C[C@@H]12 | – | 17.7 µM
47 | CC[C@]1(O)CC2CN(CCc3c([nH]c4ccccc34)C(C(=O)OC)(c3cc4c(cc3OC)N(C=O)[C@H]3[C@@](O)(C(=O)OC)[C@H](OC(C)=O)[C@]5(CC)[C@@H]6C[C@@H]6CN6CC[C@]43[C@@H]65)C2)C1 (stereo not given in full) | < 0.00325 µM | > 32.5 µM
48 | CC(C)=NC(C(=O)O)C(C)(C)S (stereo not given) | – | > 100 µM

Row | SMILES | GI50 | TGI
49 | Cc1cc2c(cc1Cl)SC(NNC(=O)c1ccccc1)=NS2(=O)=O | – | > 10 µM
50 | Cc1cc(NS(=O)(=O)c2ccc(-c3cnc(C4CC4)o3)cc2)ccc1Cl | 0.639 µM | 19.6 µM
51 | CC(=O)OC[C@@]1(C)[C@@H]2[C@@H]3[C@@]4(CO[C@]3(C)C(=O)[C@@]3(OC(C)=O)C[C@H](C)[C@H](OC(C)=O)[C@@H]3[C@H]4OC(C)=O)[C@H](OC(=O)c3ccccc3)C[C@@H]21 | – | > 100 µM
52 | CC(=O)O[C@H]1[C@@H](OC2CCCC2(c2ccccc2)c2ccccc2)O[N+]([O-])=C[C@@H]1c1ccccc1 (stereo not given in full) | – | 28.3 µM
53 | COC(=O)C(Cc1c(-c2[nH]c3ccccc3c2CC(NC(C)=O)C(=O)OC)[nH]c2ccccc12)NC(C)=O (stereo not given) | – | > 100 µM
54 | Cc1cc(N(C)c2ccccc2)nc(N(C)c2ccccc2)n1 | – | > 100 µM
55 | CC1(C)CCC2(C(=O)O)C(O)CC3(C)C(=CCC4C5(C)CCC(OC6OCC(O)C(O)C6OC6OCC(O)C(O)C6OC6OCC(O)C(OC7OC(CO)C(O)C(O)C7O)C6O)C(C)(C)C5CCC43C)C2C1 (stereo not given) | – | > 100 µM
56 | Cc1cc(NS(=O)(=O)c2ccc(NC(=O)c3cccc4c(Nc5ccc(S(=O)(=O)Nc6cc(C)on6)cc5)c5ccc(Cl)cc5nc34)cc2)no1 | – | > 100 µM
57 | C=C(CC)C(=O)c1ccc(OCC(=O)O)c(Cl)c1Cl | – | > 100 µM
58 | COc1ccc(NC(=O)CSc2nc(C)nc3c2sc(=S)n3-c2ccccc2)cc1 | – | > 10 µM
59 | O=C(N[C@H](CO)[C@H](O)c1ccc([N+](=O)[O-])cc1)C(Cl)Cl | – | > 100 µM
60 | NC(N)=NCCCC(Nc1c2ccccc2nc2ccccc12)C(=O)O (stereo not given) | – | > 100 µM
61 | O=C(NCCc1ccccn1)c1ccc2cc(C(=O)N3CC(CCl)c4ccc([N+](=O)[O-])cc43)[nH]c2c1 (stereo not given) | – | > 100 µM
62 | O=C1C=C(Nc2cc(Cl)ccc2Cl)c2ccccc2C1=O | – | 39.8 µM
63 | Cc1[nH]c(N)nc(=S)c1CCCNc1ccccc1 | – | > 100 µM
64 | COC(=O)CSc1cc(Cl)c(C)cc1S(=O)(=O)Nc1n[nH]c(N)n1 | – | > 10 µM
65 | O=C1NC(=S)NC(=O)C1=Cc1ccc([N+](=O)[O-])o1 | – | > 100 µM
66 | COC(=O)C1C(=O)C(C(=O)OC)C2CCC1N2C (stereo not given) | – | > 100 µM
67 | COc1ccc(/C=C/C(=O)OC2CC34CCNC35CC(OC5(OC)C2OC)c2ccc(OC)c(O)c24)cc1O (stereo not given) | 32.1 µM and > 100 µM | > 100 µM
68 | CN(C)CC1CCCC/C1=N\OC(=O)c1ccccc1 (stereo not given) | – | > 100 µM
69 | COc1cc2c(cc1OC)C1CN3CCCC3C(O)C1c1cc(OC)c(OC)cc1-2 (stereo not given) | – | > 100 µM
70 | CCOC(=O)CCCc1cc(=O)c2c(C)c3[nH]c4ccc(Cl)cc4c3c(C)c2[nH]1 | – | > 100 µM
71 | Cc1ccc(S(=O)(=O)NCCCSCCN)cc1 | – | > 100 µM
72 | CCP(C)(=O)CC | – | > 100 µM

Row | SMILES | GI50 | TGI
73 | CC(=O)Nc1ccc2cc(C#N)c(=O)[nH]c2n1 | – | > 100 µM
74 | Nc1nc2c(ncn2C2OC(CO)C(O)C2O)c(=O)o1 (stereo not given) | – | > 100 µM
75 | CCN1CCCCCCCCCC(=N/O)/C(=N\O)C1 | – | > 100 µM
76 | CCCCCCCCCCCCCCCC(=O)OCC1OC(OCCCC)[C@H](O[C@@H]2OC(C)C(OC(=O)CCC)C(O)C2O)C(O)C1O (stereo not given in full) | 15.5 µM | 29.4 µM
77 | c1ccc(C2=Nc3ccccc3N3CNN=C23)cc1 | > 100 µM | > 100 µM
78 | COC(=O)c1cc(C#N)[nH]c1-c1ccc(Br)s1 | – | 30.7 µM
79 | C=CCc1cc(OC)c(O)c(C(=O)/C=C/c2ccc(OC)c(OC)c2)c1 | – | 32.2 µM
80 | CC1(C)COC(c2cccc(C(O)c3ccc(Cl)cc3)c2)=N1 (stereo not given) | – | > 100 µM
81 | Oc1ccc(/C=N/NC(=S)Nc2ccccc2)nc1 | 0.742 µM | > 100 µM
82 | O=C(CNc1ccc([N+](=O)[O-])cc1)Nn1c(-c2ccccc2)nc2ccccc2c1=O | – | 29.2 µM
83 | Fc1ccc(C2CC(c3cccc(Nc4ccncc4)c3)=NN2c2ccccc2)cc1 (stereo not given) | 1.74 µM | 3.77 µM
84 | Cc1c(CN2CCOCC2)c(CN2CCOCC2)c(C)n1-c1ccc(Cl)cn1 | – | > 100 µM
85 | O=C1CC[C@@H](S(=O)(=O)c2ccccc2)[C@H](/C=C/c2ccccc2)O1 | – | > 100 µM
86 | CN1C(=O)[C@@H](CC2CCCC2)N(C2CCCC2)c2nc(Nc3cc(Cl)c(O)c(Cl)c3)ncc21 | 28.5 µM | > 100 µM
87 | OC(Cc1cnnc2ccccc12)C(Cl)(Cl)Cl (stereo not given) | – | > 10 µM
88 | Nc1nc(N)c2c(Cl)c(CNc3ccc(Cl)c(Cl)c3)ccc2n1 | – | 15.3 µM
89 | Cc1ccc(/C=C(/C#N)n2nnc3cccc(F)c32)cc1 | 1.53 µM | 9.86 µM
90 | O=c1c2c3c(sc2nc2n1sc1nc4sc5c(c4c(=O)n12)CCCC5)CCCC3 | – | > 100 µM
91 | OCC1NC(CO)C(O)C1O (stereo not given) | – | > 100 µM
92 | COc1ccc(/C(=N/Nc2nc3ccccc3n2Cc2ccccc2)C(=O)O)cc1 | – | > 100 µM
93 | C/C(=N\O)C1CC(CC(=O)O)C1(C)C (stereo not given) | – | > 100 µM
94 | O=Nn1c2ccccc2c2ccccc21 | – | > 100 µM
95 | CN1C(=O)C(O)CC1c1ccccc1F (stereo not given) | – | > 100 µM
